The record followed here is the supplement of paper PMC6609913.

Counter-ions that a name gives are not always drawn. ± gives the standard deviation of the averaged measurements. Whole data set: some 1,300 compounds, median “normalised cell viability” near 1, cut for the lowest 2% near 0.14. The list shows a part of the results.

For the experiment, the system named is V-C8 (BRCA2-deficient hamster cells). The experiment in a line: normalised cell viability (fraction of plate median); higher = more viable cells (less toxic). The settings on record: 5 µM. A digest of the protocol: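 In two screens, library drugs at 5 μM were given for 3 days (screen 1) or 6 days (screen 2) to hamster V-C8 cells without BRCA2 and V-C8 cells with BRCA2 restored, seeded 24 h earlier in 96-well plates. A resazurin assay gave the cell viability readout, expressed as modified robust per cent of sample against the plate median, with triplicate wells averaged.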

Take `NS(=O)(=O)c1cc2c(cc1Cl)N=C(CSCc1ccccc1)NS2(=O)=O` [Benzthiazide]: the normalised cell viability is, setting by setting: (treatment time: 3 days) 1.01 ± 0.05; (treatment time: 6 days) 1.04 ± 0.11.
The corresponding values for `O=C1C(CC[S+]([O-])c2ccccc2)C(=O)N(c2ccccc2)N1c1ccccc1` (stereo not drawn) [Sulfinpyrazone] are 1.02 ± 0.027 and 0.957 ± 0.16.
As to `C[C@]12C=CC(=O)C=C1CC[C@@H]1[C@@H]2[C@@H](O)C[C@@]2(C)[C@H]1CC[C@]2(O)C(=O)CO` [Prednisolone], the normalised cell viability amounted to 1.05 ± 0.076 (treatment time: 3 days) and 1.02 ± 0.057 (treatment time: 6 days).
As to `O=c1[nH]cc(F)c(=O)[nH]1` [5-fluorouracil], the normalised cell viability is 0.499 ± 0.029 (treatment time: 3 days) and 0.467 ± 0.0059 (treatment time: 6 days).
The corresponding values for `CS(=O)(=O)c1ccc([C@@H](O)[C@@H](CO)NC(=O)C(Cl)Cl)cc1` [Thiamphenicol] are 0.72 ± 0.043 and 0.74 ± 0.0092.
The corresponding values for `CC(C)Cc1ccc([C@H](C)C(=O)O)cc1` [S-(+)-ibuprofen] are 1.03 ± 0.068 and 0.858 ± 0.15.
As for `CC(=O)Oc1cc(C(F)(F)F)ccc1C(=O)O` [Triflusal], the normalised cell viability by setting is: (treatment time: 3 days) 1.04 ± 0.056; (treatment time: 6 days) 1.06 ± 0.075.
For the compound `C[C@@H](c1ncncc1F)[C@](O)(Cn1cncn1)c1ccc(F)cc1F` [Voriconazole], the normalised cell viability runs as follows: (treatment time: 3 days) 1.16 ± 0.088; (treatment time: 6 days) 1.01 ± 0.034.
The corresponding values for `O=C(O)Cc1ccccc1Nc1c(Cl)cccc1Cl` [Diclofenac sodium] are 1.13 ± 0.069 and 1.04 ± 0.042.
Regarding `CN1CCN(CCCN2c3ccccc3Sc3ccc(S(=O)(=O)N(C)C)cc32)CC1` [Thioproperazine dimesylate], the normalised cell viability was determined as 0.91 ± 0.086 (treatment time: 3 days) and 0.901 ± 0.04 (treatment time: 6 days).
In the case of `CC(=O)OCC(=O)[C@@]1(O)CC[C@H]2[C@@H]3CCC4=CC(=O)C=C[C@]4(C)[C@@]3(F)[C@@H](O)C[C@@]21C` [Isoflupredone acetate], the normalised cell viability by setting is: (treatment time: 3 days) 1.01 ± 0.027; (treatment time: 6 days) 0.968 ± 0.031.
The corresponding values for `C#C[C@]1(O)CC[C@H]2[C@@H]3[C@H](C)CC4=C(CCC(=O)C4)[C@H]3CC[C@@]21C` [Tibolone] are 0.998 ± 0.097 and 0.929 ± 0.13.
For `CN(C)CCCOc1nn(Cc2ccccc2)c2ccccc12` [Benzydamine hydrochloride], the normalised cell viability reads like this: (treatment time: 3 days) 1.35 ± 0.032; (treatment time: 6 days) 1.24 ± 0.19.
The corresponding values for `Nc1ccc(S(=O)(=O)Nc2ccc(Cl)nn2)cc1` [Sulfachloropyridazine] are 0.93 ± 0.051 and 0.9 ± 0.072.
The corresponding values for `COc1cc2nc(N3CCN(C(=O)C4CCCO4)CC3)nc(N)c2cc1OC` (stereo not drawn) [Terazosin hydrochloride] are 1.002 ± 0.0071 and 1.09 ± 0.025.
Take `O=c1[nH]c(=O)n([C@H]2C[C@H](O)[C@@H](CO)O2)cc1F` [Floxuridine]: the normalised cell viability is 0.208 ± 0.0077 (treatment time: 3 days) and 0.251 ± 0.018 (treatment time: 6 days).
For `CNNCc1ccc(C(=O)NC(C)C)cc1` [Procarbazine hydrochloride], the normalised cell viability was 0.998 ± 0.16 (treatment time: 3 days) and 0.9631 ± 0.0049 (treatment time: 6 days).
The corresponding values for `C[N+]1(C)CCC(=C(c2ccccc2)c2ccccc2)CC1` [Diphemanil methylsulfate] are 0.966 ± 0.024 and 1.01 ± 0.052.
The corresponding values for `NS(=O)(=O)c1cc2c(cc1Cl)NCNS2(=O)=O` [Hydrochlorothiazide] are 1.02 ± 0.013 and 0.999 ± 0.031.
Consider `CN(C)CCC=C1c2ccccc2C=Cc2ccccc21` [Cyclobenzaprine hydrochloride], for which the normalised cell viability by setting is: (treatment time: 3 days) 1.03 ± 0.041; (treatment time: 6 days) 1.18 ± 0.3.
For `CC(C)OC(=O)CCC/C=C\C[C@@H]1[C@@H](CC[C@@H](O)CCc2ccccc2)[C@H](O)C[C@@H]1O` [Latanoprost], the normalised cell viability by setting is: (treatment time: 3 days) 1.13 ± 0.11; (treatment time: 6 days) 1.05 ± 0.041.
As for `COc1cc(C)c(/C=C/C(C)=C/C=C/C(C)=C/C(=O)O)c(C)c1C` [Acitretin], the normalised cell viability was 0.943 ± 0.052 (treatment time: 3 days) and 0.999 ± 0.015 (treatment time: 6 days).
As for `CC(c1cc2ccccc2s1)N(O)C(N)=O` (stereo not drawn) [Zileuton], the normalised cell viability came out at 1.042 ± 0.0058 (treatment time: 3 days) and 1.04 ± 0.032 (treatment time: 6 days).
Take `CC(=O)Oc1cc(C(C)C)c(OCCN(C)C)cc1C` [Moxisylyte hydrochoride]: the normalised cell viability reads like this: (treatment time: 3 days) 1.129 ± 0.011; (treatment time: 6 days) 1.06 ± 0.089.
Regarding `CC[C@]12CCCN3CCc4c(n(c5ccccc45)C(=O)C1)[C@@H]32` [Eburnamonine (-)], the normalised cell viability is, setting by setting: (treatment time: 3 days) 0.362 ± 0.016; (treatment time: 6 days) 0.643 ± 0.11.
The corresponding values for `CCn1cc(C(=O)O)c(=O)c2cc(F)c(N3CCN(C)CC3)cc21` [Pefloxacine] are 0.981 ± 0.064 and 1.02 ± 0.028.
With `C[C@@H]1CN(c2c(F)c(N)c3c(=O)c(C(=O)O)cn(C4CC4)c3c2F)C[C@H](C)N1` [Sparfloxacin], the normalised cell viability runs as follows: (treatment time: 3 days) 0.9 ± 0.016; (treatment time: 6 days) 0.941 ± 0.016.
The corresponding values for `C[C@]12C=CC(=O)C=C1CC[C@@H]1[C@@H]2C(=O)C[C@@]2(C)[C@H]1CC[C@]2(O)C(=O)CO` [Prednisone] are 0.899 ± 0.052 and 1.03 ± 0.048.
With `CNC(=C[N+](=O)[O-])NCCSCc1csc(CN(C)C)n1` [Nizatidine], the normalised cell viability by setting is: (treatment time: 3 days) 1.05 ± 0.023; (treatment time: 6 days) 1.07 ± 0.032.
The corresponding values for `CCn1cc(C(=O)O)c(=O)c2cc(F)c(N3CCNC(C)C3)c(F)c21` (stereo not drawn) [Lomefloxacin hydrochloride] are 0.996 ± 0.095 and 0.923 ± 0.12.
The corresponding values for `CS(=O)(=O)Nc1ccc([N+](=O)[O-])cc1Oc1ccccc1` [Nimesulide] are 1.06 ± 0.046 and 1.03 ± 0.037.
The corresponding values for `COc1cc(C)nc(-n2nc(C)cc2OC)n1` [Epirizole] are 1.05 ± 0.059 and 0.97 ± 0.037.
As to `CCc1c2c(nc3ccc(OC(=O)N4CCC(N5CCCCC5)CC4)cc13)-c1cc3c(c(=O)n1C2)COC(=O)[C@]3(O)CC` [Irinotecan Hydrochloride], the normalised cell viability is, setting by setting: (treatment time: 3 days) 0.147 ± 0.013; (treatment time: 6 days) 0.18 ± 0.0066.
Consider `CNCCC=C1c2ccccc2CCc2ccccc21` [Nortriptyline hydrochloride], for which the normalised cell viability is, setting by setting: (treatment time: 3 days) 0.77 ± 0.082; (treatment time: 6 days) 0.786 ± 0.052.
